Test results taken from patent US20140221622A1 (AbbVie / Abbott, published 2014).

What was measured:
[1] = molecular target: T1, CD40 on CD40-overexpressing HEK 293 cells (UniProt P25942 21-277, limits assumed); experiment: flow cytometry on CD40-overexpressing HEK 293 cells, as in Example 4
T1 construct: whole, on cells

[2] = molecular target: T2, CD3 on Jurkat cells (UniProt P07766); experiment: flow cytometry on Jurkat cells, Alexa Fluor 488 anti-human IgG Fc
T2 construct: whole, on cells; CD3 is a multi-chain complex; also called CD3 antigen

T1 sequence (P25942 21-277 limits assumed): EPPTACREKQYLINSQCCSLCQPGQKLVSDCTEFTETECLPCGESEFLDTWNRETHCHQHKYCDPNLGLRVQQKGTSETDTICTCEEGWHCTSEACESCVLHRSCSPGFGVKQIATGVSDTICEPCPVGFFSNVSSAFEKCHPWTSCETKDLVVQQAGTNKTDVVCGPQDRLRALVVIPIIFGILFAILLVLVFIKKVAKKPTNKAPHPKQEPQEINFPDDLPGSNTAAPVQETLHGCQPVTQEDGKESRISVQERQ

Binder | EC50 [1] | EC50 [2]
anti-CD40 Fab-body (antibody, human IgG1, kappa, Monovalent Fab-Fc heterodimer (LFc and HFc chains); signal peptides left out) light: DIQMTQSPSSVSASVGDRVTITCRASQGIYSWLAWYQQKPGKAPNLLIYTASTLQSGVPSRFSGSGSGTDFTLTISSLQPEDFATYYCQQANIFPLTFGGGTKVEIKRTVAAPSVFIFPPSDEQLKSGTASVVCLLNNFYPREAKVQWKVDNALQSGNSQESVTEQDSKDSTYSLSSTLTLSKADYEKHKVYACEVTHQGLSSPVTKSFNRGECGGSGG[human IgG1 Fc with changes omitted here] heavy: [about 100 residues omitted here][about 120 residues omitted here][human IgG1 Fc with changes omitted here] | 0.47 µg/mL | 
DB001 Fab-body (bispecific antibody, human IgG1, kappa, LFc and HFc chains; signal peptides left out) light: DIQMTQSPSSMSVSVGDRVTITCHSSQDINSNIGWLQQKPGKSFKGLIYHGTNLDDGVPSRFSGSGSGTDYTLTISSLQPEDFATYYCVQYAQFPWTFGGGTKLEIKTVAAPSVFIFPPDAQVTQSPSSLSASVGDRVTITCRSSTGAVTTSNYANWVQEKPGKLFKGLIGGTNKRAPGVPSRFSGSGSGTDATLTISSLQPEDFATYFCALWYSNLWVFGGGTKVEIKRTVAAPSVFIFPPSDEQLKSGTASVVCLLNNFYPREAKVQWKVDNALQSGNSQESVTEQDSKDSTYSLSSTLTLSKADYEKHKVYACEVTHQGLSSPVTKSFNRGECGGSGG[human IgG1 Fc with changes omitted here] heavy: QVQLQESGPGLVKPSQTLSLTCTVSGYSISSDFAWNWIRQPPGKGLEWMGYISYSGNTRYQPSLKSRITISRDTSKNQFFLKLNSVTAADTATYYCVTAGRGFPYWGQGTLVTVSSASTKGPEVQLVESGGGLVQPGGSLRLSCAASGFTFSTYAMNWVRQAPGKGLEWVGRIRSKYNNYATYYADSVKDRFTISRDDSKNTAYLQMNSLRAEDTAVYYCTRHGNFGNSYVSWFAYWGQGTLVTVSSASTKGPSVFPLAPSSKSTSGGTAALGCLVKDYFPEPVTVSWNSGALTSGVHTFPAVLQSSGLYSLSSVVTVPSSSLGTQTYICNVNHKPSNTKVDKKV[human IgG1 Fc with changes omitted here] |  | 80 nM
